Source: PubChem BioAssay (NCATS)
“And” between values parts separate entries of the source, which are not always exact repeats. Identical values can stand only once. The shares of active, inactive and inconclusive entries below differ from those in the screen. For some assays here: Potencies of inconclusive entries are doubtful fits and often do not repeat. The source made the active and inactive calls. Unless noted, calls come from the whole dose curve; as a rule, active = well fitted curve in the direction sought with a large enough effect; inconclusive = small, poorly fitted or top-dose-only effect, or another doubt; inactive = no such curve, though single readings can be large; an effect the other way counts as inactive or inconclusive.

What was measured:
[1] = P-glycoprotein substrates identified in KB-8-5-11 adenocarcinoma cell line, qHTS therapeutic library screen (AID 1346987); settings: KB-8-5-11 (P-gp overexpressing) viability, CellTiter-Glo, 72 h; series mostly up to 44.5 µM; note: nearly all actives have a fitted effect of over 65% in size
In short: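 KB-8-5-11: colchicine-selected sub-line of KB-3-1 over-expressing P-gp; assay medium lacked colchicine. 72 h drug exposure at 37 degree C, CellTiter-Glo.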

[2] = Primary qHTS for inhibitors of nuclear receptor binding SET domain protein 2 (NSD2) in an isogenic RCH-ACV NSD2 p.E1099K mutant (9B) (AID 1645876); settings: RCH-ACV NSD2 E1099K (9B) viability, CellTiter-Glo, 72 h; series mostly up to 44.9 µM; note: nearly all actives have a fitted effect of over 70% in size
[3] = Primary qHTS for inhibitors of nuclear receptor binding SET domain protein 2 (NSD2) in an RCH-ACV wild type WT cells (2C) (AID 1645877); settings: RCH-ACV (leukaemia line) NSD2 WT (2C) viability, CellTiter-Glo, 72 h; activity change, negative = cell killing: at 44.9 µM (top of the series) unless noted; series mostly up to 44.9 µM; note: nearly all actives have a fitted effect of over 70% in size
KB-3-1 = test: Cytotoxic Profiling of Annotated Libraries Using Quantitative High-Throughput Screening (AID 1296008); settings: Five cell lines viability, CellTiter-Glo ATP luminescence, 48-72 h; max response: stronger effect = lower value; note: nearly all actives have a fitted effect of over 60% in size; for max response: % is set by controls: 0 for no effect and ±100 for the full control effect
In short: (§1)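 Cytotoxicity was measured as CellTiter-Glo ATP luminescence, read after 10 min at room temperature. Compound treatment of the cells lasted 48 or 72 hr at 37 degrees Celsius in a qHTS format.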

NIH3T3 = test: as above; settings: Five cell lines viability, CellTiter-Glo ATP luminescence, 48-72 h; max response: stronger effect = lower value
In short: as §1

C33A = test: Primary qHTS to identify gynecologic anti-cancer compounds using libraries of approved drugs and bioactive compounds (AID 1345084); settings: Gynecologic cancer cell panel viability, ATPlite luminescence, 48 h; series mostly up to 57.5 µM; note: nearly all actives have a fitted effect of over 55% in size; for activity change, negative = cytotoxicity: % is set by controls: 0 for no effect and ±100 for the full control effect
In short: (§2)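 Cell viability after 48 h drug treatment, ATPlite luminescence readout; five doses.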

Hek293T = test: as above; settings: Gynecologic cancer cell panel viability, ATPlite luminescence, 48 h, control line for the selectivity index; activity change, negative = cytotoxicity: at 57.5 µM (top of the series) unless noted
In short: as §2

SKOV3 = test: as above; settings: Gynecologic cancer cell panel viability, ATPlite luminescence, 48 h; series mostly up to 57.5 µM
In short: as §2

[4] = target: Cytochrome P450 2D6 (Homo sapiens) (UniProt P10635); test: Cytochrome P450 family 2 subfamily D member 6 (CYP2D6) small molecule antagonists: luciferase biochemical (cell-free) qHTS assay (AID 1645840; active = well fitted curve in the direction sought with a large enough effect in the repeat runs; inconclusive = weak or mixed curves; inactive = no such curve, though single readings can be large; an effect the other way counts as inactive or inconclusive; note: nearly all actives have a fitted effect of over 55% in size); settings: P450-Glo CYP2D6 enzyme, luciferin luminescence, 1 h; series mostly up to 57.4 µM
In short: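 P450-Glo luminescent screen: recombinant CYP2D6 enzyme–proluciferin substrate mix preincubated with compound 10 min at room temperature, then NADPH regeneration added for 1 h at room temperature. Detection reagent added for 20 min; luciferin light read as relative luminescence units.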

[5] = Primary fluorescence-based thiol-reactive (MSTI) qHTS assay for identification of artifact compounds. (AID 1845221); settings: MSTI thiol-reactivity probe, 1 h; series mostly up to 53.8 µM;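 note: thiol-reactive compounds lower the probe fluorescence signal; nearly all actives have a fitted effect of over 65% in size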
In short: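 Probe: MSTI 4 uM, PBS pH 7.4, 2% DMSO. Incubation 1 h, RT, light-protected. Readout fluorescence 525/598 nm.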

CAOV3 = test: Primary qHTS to identify gynecologic anti-cancer compounds using libraries of approved drugs and bioactive compounds (AID 1345084); settings: Gynecologic cancer cell panel viability, ATPlite luminescence, 48 h; activity change, negative = cytotoxicity: at 57.5 µM (top of the series); note: nearly all actives have a fitted effect of over 55% in size; for activity change, negative = cytotoxicity: % is set by controls: 0 for no effect and ±100 for the full control effect
In short: as §2

OV90 = test: as above; settings: Gynecologic cancer cell panel viability, ATPlite luminescence, 48 h; series mostly up to 57.5 µM
In short: as §2

CASKI = test: as above; settings: Gynecologic cancer cell panel viability, ATPlite luminescence, 48 h; series mostly up to 57.5 µM
In short: as §2

Es-2 = test: as above; settings: Gynecologic cancer cell panel viability, ATPlite luminescence, 48 h; series mostly up to 57.5 µM
In short: as §2

HeLa = test: as above; settings: Gynecologic cancer cell panel viability, ATPlite luminescence, 48 h; activity change, negative = cytotoxicity: at 57.5 µM (top of the series)
In short: as §2

PA-1 = test: as above; settings: Gynecologic cancer cell panel viability, ATPlite luminescence, 48 h; series mostly up to 57.5 µM
In short: as §2

Tov-21-G = test: as above; settings: Gynecologic cancer cell panel viability, ATPlite luminescence, 48 h; activity change, negative = cytotoxicity: at 57.5 µM (top of the series) unless noted
In short: as §2

Tov112D = test: as above; settings: Gynecologic cancer cell panel viability, ATPlite luminescence, 48 h; series mostly up to 57.5 µM
In short: as §2
Potency is the fitted concentration of half-maximal effect; tags give direction and shape of the fitted curve.

Sequence of UniProt P10635 (P10635 whole entry, looked up): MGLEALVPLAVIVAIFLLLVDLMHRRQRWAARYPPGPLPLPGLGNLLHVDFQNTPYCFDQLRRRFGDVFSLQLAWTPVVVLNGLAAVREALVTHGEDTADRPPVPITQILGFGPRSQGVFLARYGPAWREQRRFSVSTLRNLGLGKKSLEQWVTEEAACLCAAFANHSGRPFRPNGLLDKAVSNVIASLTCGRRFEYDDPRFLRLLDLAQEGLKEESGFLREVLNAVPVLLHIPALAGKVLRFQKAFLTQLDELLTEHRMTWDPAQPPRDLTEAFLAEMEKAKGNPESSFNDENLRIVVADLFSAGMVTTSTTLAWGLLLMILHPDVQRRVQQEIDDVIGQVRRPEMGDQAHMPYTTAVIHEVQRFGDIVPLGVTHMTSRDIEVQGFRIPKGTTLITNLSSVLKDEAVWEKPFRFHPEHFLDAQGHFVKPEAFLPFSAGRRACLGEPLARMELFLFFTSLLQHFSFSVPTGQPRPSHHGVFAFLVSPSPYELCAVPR

CC(=O)Nc1cccc(Nc2ncnc(N3CCC(OCc4ccc(OC(F)(F)F)cc4)CC3)n2)c1C
Potency [1]: inconclusive: 8.2 µM [inhibitor, partial curve] | Potency [2]: inconclusive: 3.65 µM [inhibitor, full curve] | Potency [3]: inconclusive: 2.58 µM [inhibitor, full curve] | Potency (KB-3-1): inconclusive: 16.4 µM [inhibitor, partial curve] | max response (NIH3T3): inactive: -3.89% | Potency (C33A): inconclusive: 39.8 µM [cytotoxic, single point] | Potency (Hek293T): inconclusive: 3.55 µM [cytotoxic, full curve, poor fit] | Potency (SKOV3): inconclusive: 39.8 µM [cytotoxic, single point]

CCC[C@@H](NC(=O)N1C(=O)C(CC)(CC)[C@@H]1Oc1ccc(C(=O)N2CCN(C)CC2)cc1)c1ccc2c(c1)OCO2
Potency [1]: active: 20.6 µM | Potency [4]: active: 16.9 µM | Potency [2]: inconclusive: 29 µM [inhibitor, single point] | Potency [3]: inconclusive: 18.3 µM [inhibitor, single point] | Potency [5]: inconclusive: 37.7 µM [inhibitor, single point] | Potency (KB-3-1): inconclusive: 29.1 µM [inhibitor, single point] | Potency (NIH3T3): inconclusive: 18.4 µM [inhibitor, single point] | Potency (CAOV3): inactive | Potency (OV90): inactive

COc1ccc([C@H]2OC[C@H]3O[C@@H](O[C@H]4[C@@H]2NC[C@@H]4O)[C@H](O)[C@H]3O)cc1
Potency (KB-3-1): active: 0.904 µM | Potency (NIH3T3): active: 1.14 µM | Potency (C33A): active: 7.08 µM | Potency (CAOV3): active: 2.82 µM | Potency (CASKI): active: 5.01 µM | Potency (Es-2): active: 4.47 µM | Potency (HeLa): inconclusive: 3.98 µM [cytotoxic, full curve, poor fit] | Potency (Hek293T): active: 3.16 µM | Potency (OV90): inconclusive: 12.6 µM [cytotoxic, partial curve, poor fit] | Potency (PA-1): active: 5.01 µM | Potency (SKOV3): active: 3.98 µM | Potency (Tov-21-G): active: 2.82 µM | Potency (Tov112D): active: 5.62 µM

CO[C@H]1/C=C\O[C@@]2(C)Oc3c(C)c(O)c4c(O)c(c5c(nc6cc(C)ccn65)c4c3C2=O)NC(=O)/C(C)=C\C=C/[C@H](C)[C@H](O)[C@@H](C)[C@@H](O)[C@@H](C)[C@H](OC(C)=O)[C@@H]1C
Potency [1]: inactive | Potency [2]: inconclusive: 18.3 µM [inhibitor, single point] | Potency [5]: inconclusive: 0.67 µM [inhibitor, full curve] | max response (KB-3-1): inactive: 9.37% | Potency (NIH3T3): inconclusive: 29.1 µM [inhibitor, single point] | Potency (CAOV3): inactive

CCc1cnn2c(NCc3ccc[n+]([O-])c3)cc(N3CCCCC3CCO)nc12 (stereo not given)
Potency [1]: active: 0.206 µM | Potency [5]: inconclusive: 2.99 µM [inhibitor, full curve] | Potency (KB-3-1): active: 0.0092 µM | Potency (NIH3T3): active: 0.0651 µM | Potency (C33A): inconclusive: 0.0891 µM | Potency (CAOV3): inconclusive: 0.708 µM [cytotoxic, full curve, poor fit] | Potency (CASKI): inconclusive: 0.0891 µM | Potency (Es-2): inconclusive: 0.891 µM | Potency (HeLa): inconclusive: 50.1 µM | Potency (Hek293T): inconclusive: 10 µM | Potency (PA-1): inconclusive: 100 µM | Potency (SKOV3): inconclusive: 15.8 µM [cytotoxic, partial curve, poor fit] | Potency (Tov-21-G): inconclusive: 44.7 µM | Potency (Tov112D): inconclusive: 0.0316 µM

Cc1cc2c(F)c(Oc3ncnn4cc(OCC(C)OC(=O)C(C)N)c(C)c34)ccc2[nH]1 (stereo not given)
Potency [1]: inconclusive: 29.1 µM [inhibitor, single point] | Potency [3]: active: 8.33 µM | Potency (KB-3-1): inconclusive: 23.1 µM [inhibitor, partial curve, poor fit] | Potency (NIH3T3): inconclusive: 29.1 µM [inhibitor, single point] | Potency (Es-2): inactive | Potency (HeLa): inconclusive: 39.8 µM [cytotoxic, single point] | Potency (Hek293T): inconclusive: 25.1 µM [cytotoxic, partial curve, poor fit] | Potency (Tov112D): inconclusive: 28.2 µM [cytotoxic, single point]

NS(=O)(=O)OC[C@@H]1C[C@@H](n2ccc3c(N[C@H]4CCc5ccccc54)ncnc32)C[C@@H]1O
Potency [1]: inconclusive: 9.2 µM [inhibitor, partial curve] | Potency [2]: active: 325 nM and active: 409 nM and active: 525 nM | Potency [3]: active: 365 nM and active: 515 nM and active: 525 nM | Potency [5]: inactive | Potency (KB-3-1): inconclusive: 1.03 µM [inhibitor, full curve] and inconclusive: 1.84 µM [inhibitor, full curve] | Potency (NIH3T3): inconclusive: 29.1 µM [inhibitor, single point] and inconclusive: 7.31 µM [inhibitor, partial curve] | Potency (C33A): inconclusive: 562 nM [cytotoxic, full curve, poor fit] and inconclusive: 1.58 µM [cytotoxic, full curve] | Potency (CAOV3): active: 631 nM and inconclusive: 282 nM [cytotoxic, full curve, poor fit] | Potency (Es-2): active: 3.16 µM and inconclusive: 5.62 µM [cytotoxic, partial curve, poor fit] | Potency (HeLa): inconclusive: 7.94 µM [cytotoxic, partial curve, poor fit] | Potency (Hek293T): active: 2.51 µM and inconclusive: 7.08 µM [cytotoxic, full curve] | Potency (OV90): inconclusive: 0.1 µM [cytotoxic, full curve, poor fit] | Potency (PA-1): active: 708 nM and active: 1 µM | Potency (SKOV3): active: 10 µM and inconclusive: 10 µM [cytotoxic, partial curve, poor fit] | Potency (Tov-21-G): active: 501 nM and active: 398 nM | Potency (Tov112D): inconclusive: 3.55 µM [cytotoxic, full curve] and inconclusive: 7.08 µM [cytotoxic, full curve, poor fit]

CCCCn1c(-c2ccccc2)nc(-c2ccccc2)c1CN(Cc1ccc2c(c1)OCO2)Cc1ccc2c(c1)OCO2
Potency [1]: inconclusive: 18.4 µM [inhibitor, single point] | Potency [2]: inconclusive: 20.5 µM [inhibitor, single point] | Potency [5]: inconclusive: 1.89 µM [inhibitor, full curve, poor fit] | Potency (KB-3-1): inconclusive: 29.1 µM [inhibitor, single point] | Potency (NIH3T3): inconclusive: 20.6 µM [inhibitor, single point] | Potency (CASKI): inconclusive: 8.91 µM [cytotoxic, partial curve, poor fit] | Potency (PA-1): inactive

CC(C)(C)c1ccc(S(=O)(=O)NCc2ccc(C(=O)Nc3cccnc3)cc2)cc1
Potency (KB-3-1): active: 0.731 µM | Potency (NIH3T3): active: 3.66 µM | Potency (C33A): active: 7.94 µM | Potency (CAOV3): inconclusive: 31.6 µM [cytotoxic, single point] | Potency (CASKI): inconclusive: 39.8 µM [cytotoxic, single point] | Potency (Es-2): active: 3.55 µM | Potency (Hek293T): inconclusive: 2.24 µM [cytotoxic, full curve, poor fit] | Potency (SKOV3): active: 7.08 µM | Potency (Tov-21-G): active: 1.78 µM | Potency (Tov112D): inconclusive: 3.55 µM [cytotoxic, full curve, poor fit]

COc1cc2c(cc1-c1c(C)noc1C)ncc1[nH]c(=O)n(C(C)c3ccccn3)c12 (stereo not given)
Potency [1]: inconclusive: 6.51 µM [inhibitor, partial curve] | Potency (KB-3-1): inconclusive: 3.26 µM [inhibitor, full curve] | Potency (NIH3T3): active: 7.31 µM | Potency (CAOV3): inconclusive: 22.4 µM [cytotoxic, partial curve, poor fit] | Potency (Es-2): inconclusive: 6.31 µM [cytotoxic, partial curve] | Potency (HeLa): inconclusive: 2.82 µM [cytotoxic, full curve] | Potency (OV90): inconclusive: 1.12 µM [cytotoxic, full curve] | Potency (PA-1): inconclusive: 3.16 µM [cytotoxic, full curve, poor fit] | Potency (SKOV3): active: 12.6 µM | Potency (Tov-21-G): inconclusive: 25.1 µM [cytotoxic, single point]

C=C1CC2OC(=O)C(COC)C2C(OC(=O)/C(C)=C\C)CC2(C)OC1=CC2=O (stereo not given)
Potency [1]: inconclusive: 14.3 µM [inhibitor, single point] | Potency (KB-3-1): inconclusive: 14.3 µM [inhibitor, single point] | Potency (NIH3T3): inconclusive: 20.2 µM [inhibitor, single point] | Potency (C33A): inconclusive: 28.2 µM [cytotoxic, single point] | Potency (CASKI): inactive | Potency (Es-2): inconclusive: 11.2 µM [cytotoxic, single point] | Potency (Hek293T): inconclusive: 28.2 µM [cytotoxic, single point] | Potency (PA-1): inconclusive: 12.6 µM [cytotoxic, partial curve, poor fit] | Potency (Tov-21-G): inconclusive: 11.2 µM [cytotoxic, single point]
